Assay results from PubChem BioAssay (NCATS).
Several values for one entry are separate records, joined by “and”; a condition that tells them apart may be missing. Equal values may be shown once. The inconclusive results got no clear call from the source; some entries with a clear call stand among them for comparison. A potency beside an inconclusive call is a rough fit, not a confirmed value. Activity calls are given as the source filed them. Calls come from the whole dose curve; as a rule, active = well fitted cell-killing curve with a large enough effect; inconclusive = small, poorly fitted or top-dose-only effect; inactive = no such curve, though single readings can be large or run the other way. Bridge positions count the residues as written; N and C are the ends. Square brackets hold non-standard residues; d marks the D form. Peptide text beside a SMILES is read from it. * marks the point of attachment. ξ: configuration not given here. Octanoyl(6-Me) = CCC(C)CCCCC(=O)*; ξThr(3R) = C[C@@H](O)C(N)C(=O)O; dDab = NCC[C@@H](N)C(=O)O; Dab = NCC[C@H](N)C(=O)O

experiment: qHTS of pediatric cancer cell lines to identify multiple opportunities for drug repurposing: Primary screen for NB1643 cells (AID 1347099); conditions: NB1643 neuroblastoma viability, CellTiter-Glo luminescence, 48 h; series mostly up to 46 µM; note: nearly all actives have a fitted effect of over 50% in size
How it was run: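 ATP-based luminescence (CellTiter-Glo) quantifies viability after a 48-hour exposure. Compounds are dosed across 8 or 11 final concentrations; DMSO and 2.3 µM bortezomib serve as controls.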
Potency is the fitted concentration of half-maximal effect; tags give direction and shape of the fitted curve.

SMILES	Potency
Cc1cnc(C(=O)NCCc2ccc(S(=O)(=O)NC(=O)NC3CCCCC3)cc2)cn1	inconclusive: 29.6 µM [cytotoxic, single point]
N#Cc1ccc(Oc2ccc3c(c2)COB3O)cc1	inconclusive: 18.7 µM [cytotoxic, partial curve]
COc1ccccc1N1CCN(CC(O)COc2cccc3ccccc23)CC1 (configuration not stated)	inconclusive: 26.6 µM [cytotoxic, partial curve]
NS(=O)(=O)c1ccc(NC2=CC(=O)c3ccccc3C2=O)cc1	active: 18.7 µM
O=C(Nc1cc(Cl)cc2c1[nH]c1cnccc12)c1cccnc1	inconclusive: 6.62 µM [cytotoxic, partial curve]
CO[C@H]1C[C@@H]2CC[C@@H](C)[C@@](O)(O2)C(=O)C(=O)N2CCCC[C@@H]2C(=O)O[C@H]([C@@H](C)C[C@@H]2CC[C@H](O)[C@H](OC)C2)CC(=O)[C@H](C)C=C(C)[C@@H](O)[C@@H](OC)C(=O)[C@H](C)C[C@H](C)C=CC=CC=C1C	inconclusive: 14.8 µM [cytotoxic, partial curve, poor fit]
O=C(CCc1ccc(O)cc1)c1c(O)cc(O)cc1O	inconclusive: 13.2 µM [cytotoxic, partial curve]
COC1CCC(N(C(=O)C2CCC(C)CC2)c2cc(C3=CCCCC3)sc2C(=O)O)CC1 (configuration not stated)	active: 23.5 µM
O=C(c1cncc(Br)c1)N1CCC(N2CCCC2)CC1	inactive
Nc1ncnc2nc(-c3ccc(N4CCOCC4)nc3)cc(-c3cccc(Br)c3)c12	inconclusive: 18.7 µM [cytotoxic, partial curve]
COc1cc(F)c(F)c(Nc2ccc(I)cc2F)c1NS(=O)(=O)C1(C[C@H](O)CO)CC1	inactive
Cc1onc(-c2ccccc2)c1C(=O)N[C@@H]1C(=O)N2[C@@H](C(=O)O)C(C)(C)S[C@@H]12	inactive
COc1cc2nc(N3CCN(C(=O)c4ccco4)CC3)nc(N)c2cc1OC	inconclusive: 10.3 µM [cytotoxic, partial curve]
CCC(C)CCCCC(=O)N[C@@H](CCN)C(=O)NC(C(=O)N[C@H](CCN)C(=O)N[C@@H]1CCNC(=O)C([C@@H](C)O)NC(=O)[C@@H](CCN)NC(=O)[C@@H](CCN)NC(=O)[C@@H](CC(C)C)NC(=O)[C@H](Cc2ccccc2)NC(=O)[C@H](CCN)NC1=O)[C@@H](C)O (stereo partly drawn) ({Octanoyl(6-Me)}-[Dab][ξThr(3R)][dDab][dDab][Dab]F[dL][dDab][dDab][ξThr(3R)]; lactam 4-C)	inactive
CC(C)C[C@H](CC(=O)O)C(=O)N[C@@H](Cc1c[nH]c2ccccc12)C(=O)N[C@@H](C)c1ccccc1	inconclusive: 1.87 µM [cytotoxic, full curve]

experiment: qHTS of pediatric cancer cell lines to identify multiple opportunities for drug repurposing: Primary screen for LAN-5 cells (AID 1347100); conditions: LAN-5 neuroblastoma viability, CellTiter-Glo luminescence, 48 h; series mostly up to 46 µM
How it was run: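 Cells (500-1,000/well) rested 5 h, then received compounds for 48 h; metabolically active cells were measured by CellTiter-Glo luminescence. Final concentrations spanned up to 46 µM (MIPE, 11-point) or 0.59 nM-46 µM (NPC, 8-point) in primary screens, 11-point in follow-ups.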

SMILES	Potency
Cc1cnc(C(=O)NCCc2ccc(S(=O)(=O)NC(=O)NC3CCCCC3)cc2)cn1	inactive
CC(CCc1ccc(O)cc1)NCCc1ccc(O)c(O)c1 (configuration not stated)	inconclusive: 18.7 µM [cytotoxic, partial curve] and inconclusive: 26.6 µM [cytotoxic, single point]
Cc1cc2c(cc1C1(c3ccc(C(=O)O)cn3)CC1)C(C)(C)CCC2(C)C	inactive
N#Cc1ccc(Oc2ccc3c(c2)COB3O)cc1	inconclusive: 26.4 µM [cytotoxic, single point]
NS(=O)(=O)c1ccc(NC2=CC(=O)c3ccccc3C2=O)cc1	inconclusive: 8.33 µM [cytotoxic, full curve]
O=C(C1CC1)N1CC[C@@H](Cn2c(-c3ccc(-c4ccc5occc5c4)cc3)nc3cnccc32)C1	inconclusive: 26.4 µM [cytotoxic, single point]
Clc1cc(Cl)cc(CNc2ncncc2-c2ccc3c(c2)OCO3)c1	inconclusive: 23.5 µM [cytotoxic, single point]
CO[C@H]1C=CO[C@@]2(C)Oc3c(C)c(O)c4c(O)c(c5c(c4c3C2=O)NC2(CCN(CC(C)C)CC2)N=5)=NC(=O)C(C)=CC=C[C@H](C)[C@H](O)[C@@H](C)[C@@H](O)[C@@H](C)[C@H](OC(C)=O)[C@H]1C	inconclusive: 13.2 µM [cytotoxic, partial curve, poor fit]
COc1ccc2nc3cc(Cl)ccc3c(Nc3cc(CN4CCCC4)c(O)c(CN4CCCC4)c3)c2n1	inconclusive: 23.5 µM [cytotoxic, single point]
C[C@H]1c2cccc(O)c2C(O)=C2C(=O)[C@]3(O)C(O)=C(C(N)=O)C(=O)[C@@H](N(C)C)[C@@H]3[C@@H](O)[C@@H]21	inconclusive: 21.1 µM [cytotoxic, single point]
CO[C@H]1C[C@@H]2CC[C@@H](C)[C@@](O)(O2)C(=O)C(=O)N2CCCC[C@@H]2C(=O)O[C@H]([C@@H](C)C[C@@H]2CC[C@H](O)[C@H](OC)C2)CC(=O)[C@H](C)C=C(C)[C@@H](O)[C@@H](OC)C(=O)[C@H](C)C[C@H](C)C=CC=CC=C1C	inconclusive: 37.2 µM [cytotoxic, single point]
Nc1ccn([C@@H]2O[C@H](CO)[C@@H](O)[C@H]2O)c(=O)n1	active: 0.0935 µM
COc1ccccc1OCCNCC(O)COc1cccc2[nH]c3ccccc3c12 (configuration not stated)	inconclusive: 11.9 µM [cytotoxic, partial curve]
O=C(c1cncc(Br)c1)N1CCC(N2CCCC2)CC1	inactive
Nc1ncnc2nc(-c3ccc(N4CCOCC4)nc3)cc(-c3cccc(Br)c3)c12	inconclusive: 26.4 µM [cytotoxic, single point]
C[C@]1(c2nc3c(C(N)=O)cccc3[nH]2)CCCN1	inconclusive: 20.9 µM [cytotoxic, single point]
COc1cc2nc(N3CCN(C(=O)c4ccco4)CC3)nc(N)c2cc1OC	inconclusive: 13 µM [cytotoxic, single point]
